Here are results for four molecules from US20240076343A1 (CEPHALON, published 2024).

In assay [1] the target is T1, high-affinity hIL-2 receptor (IL-2Rαβγ) on NK-92 cells (human, UniProt P01589 22-272; P14784 27-551; P31785 23-369).
T1 sequence 1: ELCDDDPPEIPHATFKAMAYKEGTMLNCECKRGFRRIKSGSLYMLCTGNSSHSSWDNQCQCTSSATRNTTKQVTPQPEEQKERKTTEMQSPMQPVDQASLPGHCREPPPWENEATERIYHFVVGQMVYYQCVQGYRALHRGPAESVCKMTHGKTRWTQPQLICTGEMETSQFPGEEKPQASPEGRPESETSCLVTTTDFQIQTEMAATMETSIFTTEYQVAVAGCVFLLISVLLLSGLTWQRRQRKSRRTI
T1 sequence 2: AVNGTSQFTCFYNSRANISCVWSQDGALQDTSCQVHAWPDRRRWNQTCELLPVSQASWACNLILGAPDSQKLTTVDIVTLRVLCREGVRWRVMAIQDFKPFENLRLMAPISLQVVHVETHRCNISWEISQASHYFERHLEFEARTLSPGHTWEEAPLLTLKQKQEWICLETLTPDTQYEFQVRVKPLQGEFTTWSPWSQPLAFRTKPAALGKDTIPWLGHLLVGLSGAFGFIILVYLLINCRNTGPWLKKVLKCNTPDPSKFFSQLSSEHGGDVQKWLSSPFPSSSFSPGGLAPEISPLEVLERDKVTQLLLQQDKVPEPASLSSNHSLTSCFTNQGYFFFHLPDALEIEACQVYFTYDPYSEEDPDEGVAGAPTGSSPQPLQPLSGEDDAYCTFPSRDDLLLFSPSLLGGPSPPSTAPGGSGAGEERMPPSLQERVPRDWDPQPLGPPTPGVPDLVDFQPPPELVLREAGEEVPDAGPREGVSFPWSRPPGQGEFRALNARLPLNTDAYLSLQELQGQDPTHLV
T1 sequence 3: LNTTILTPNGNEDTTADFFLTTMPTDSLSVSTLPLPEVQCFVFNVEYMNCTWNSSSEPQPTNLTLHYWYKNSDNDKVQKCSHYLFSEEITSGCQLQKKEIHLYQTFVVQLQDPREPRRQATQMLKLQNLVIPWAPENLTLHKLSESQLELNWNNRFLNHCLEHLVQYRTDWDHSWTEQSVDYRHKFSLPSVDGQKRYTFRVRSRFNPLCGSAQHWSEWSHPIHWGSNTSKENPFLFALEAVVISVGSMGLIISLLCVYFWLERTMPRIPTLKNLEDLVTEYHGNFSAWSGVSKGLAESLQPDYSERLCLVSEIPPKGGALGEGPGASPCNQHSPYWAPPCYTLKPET
In words: cell-based or functional assay.

The target of assay [2] is T2, intermediate-affinity hIL-2 receptor complex (IL-2Rβγ) on TF1+IL-2Rβ cells (human, UniProt P14784 27-551; P31785 23-369).
T2 sequence 1: T1 sequence 2
T2 sequence 2: T1 sequence 3
In words: cell-based or functional assay.

B1: hIL-2 Nterm light chain L6 fusion (other)
heavy: EVQLVESGGGLVQPGRSLKLSCAVSGFTFSDYAMAWVRQAPKKGLEWVATISYDGSRTYYRDSVKGRFTISRDNAKITLYLQMDSLRSEDTATYYCARHGSGYFDYWGQGVMVTVSS[not shown - human IgG1 constant region]
light: [not shown - about 150 residues]SGGGGSDTVLTQSPALAVSPGERVTISCRASESVRTGVHWYQQKPGQQPKLLIYGASNLESGVPARFSGSGSGTDFTLTIDPVEADDTATYFCQQSWNDPFTFGSGTKLEIKRTVAAPSVFIFPPSDEQLKSGTASVVCLLNNFYPREAKVQWKVDNALQSGNSQESVTEQDSKDSTYSLSSTLTLSKADYEKHKVYACEVTHQGLSSPVTKSFNRGEC
In the case of B1, in assay [1], the “Fold change from rhIL-2 (NK-92)” value is ~0 fold. Besides, the “Fold change from rhIL-2 (TF1 + IL-2Rβ)” value in assay [2] came to 0 fold.

B2: hIL-2 Cterm light chain L6 fusion (other)
heavy: B1 heavy
light: DTVLTQSPALAVSPGERVTISCRASESVRTGVHWYQQKPGQQPKLLIYGASNLESGVPARFSGSGSGTDFTLTIDPVEADDTATYFCQQSWNDPFTFGSGTKLEIKRTVAAPSVFIFPPSDEQLKSGTASVVCLLNNFYPREAKVQWKVDNALQSGNSQESVTEQDSKDSTYSLSSTLTLSKADYEKHKVYACEVTHQGLSSPVTKSFNRGECSGGGGS[not shown - about 150 residues]
Take B2: in assay [1], the “Fold change from rhIL-2 (NK-92)” value was ~0 fold. Also, in assay [2], the “Fold change from rhIL-2 (TF1 + IL-2Rβ)” value was found to be 0 fold.

B3: hCD25-L20-hIL-2 Nterm heavy chain df (other)
heavy: ELCDDDPPEIPHATFKAMAYKEGTMLNCECKRGFRRIKSGSLYMLCTGNSSHSSWDNQCQCTSSATRNTTKQVTPQPEEQKERKTTEMQSPMQPVDQASLPGHCREPPPWENEATERIYHFVVGQMVYYQCVQGYRALHRGPAESVCKMTHGKTRWTQPQLICTSGGGGSGGGGSGGGGSGGGS[not shown - about 150 residues]EVQLVESGGGLVQPGRSLKLSCAVSGFTFSDYAMAWVRQAPKKGLEWVATISYDGSRTYYRDSVKGRFTISRDNAKITLYLQMDSLRSEDTATYYCARHGSGYFDYWGQGVMVTVSS[not shown - human IgG1 constant region]
light: DTVLTQSPALAVSPGERVTISCRASESVRTGVHWYQQKPGQQPKLLIYGASNLESGVPARFSGSGSGTDFTLTIDPVEADDTATYFCQQSWNDPFTFGSGTKLEIKRTVAAPSVFIFPPSDEQLKSGTASVVCLLNNFYPREAKVQWKVDNALQSGNSQESVTEQDSKDSTYSLSSTLTLSKADYEKHKVYACEVTHQGLSSPVTKSFNRGEC
Take B3: the “Fold change from rhIL-2 (NK-92)” value in assay [1] came to 1050 fold. Besides, in assay [2], the “Fold change from rhIL-2 (TF1 + IL-2Rβ)” value was ~314 fold.

B4: hCD25-L20-hIL-2 Nterm heavy chain L6 fusion (other)
heavy: ELCDDDPPEIPHATFKAMAYKEGTMLNCECKRGFRRIKSGSLYMLCTGNSSHSSWDNQCQCTSSATRNTTKQVTPQPEEQKERKTTEMQSPMQPVDQASLPGHCREPPPWENEATERIYHFVVGQMVYYQCVQGYRALHRGPAESVCKMTHGKTRWTQPQLICTSGGGGSGGGGSGGGGSGGGS[not shown - about 150 residues]SGGGGSEVQLVESGGGLVQPGRSLKLSCAVSGFTFSDYAMAWVRQAPKKGLEWVATISYDGSRTYYRDSVKGRFTISRDNAKITLYLQMDSLRSEDTATYYCARHGSGYFDYWGQGVMVTVSS[not shown - human IgG1 constant region]
light: B3 light
B4: in assay [1], the “Fold change from rhIL-2 (NK-92)” value amounted to 318 fold. Besides, the “Fold change from rhIL-2 (TF1 + IL-2Rβ)” value in assay [2] is 18 fold.
